Assay results reported in PMC7819943, “Rice protein-binding microarrays: a tool to detect cis-acting elements near promoter regions in rice”.
This is one part of the list.

The sequences below were run against T1, OsWOX13 (Oryza sativa, UniProt Q5QMM3 1-267) (assay: protein-binding microarray (RPBM); PBS, 2% BSA, 51.3 ng/ul salmon testes DNA, 50 uM zinc acetate, 200 nM TF, 25 C, 1 h; high values mean tight binding). Details: protein: recombinant; tags: N-terminal polyhistidine and DsRed monomer fusion (pET32a); label: CyDye5-dUTP incorporated in the synthesized complementary strand; 3' TTTTT single-stranded linker to array surface; dsDNA, one strand shown.
T1 sequence: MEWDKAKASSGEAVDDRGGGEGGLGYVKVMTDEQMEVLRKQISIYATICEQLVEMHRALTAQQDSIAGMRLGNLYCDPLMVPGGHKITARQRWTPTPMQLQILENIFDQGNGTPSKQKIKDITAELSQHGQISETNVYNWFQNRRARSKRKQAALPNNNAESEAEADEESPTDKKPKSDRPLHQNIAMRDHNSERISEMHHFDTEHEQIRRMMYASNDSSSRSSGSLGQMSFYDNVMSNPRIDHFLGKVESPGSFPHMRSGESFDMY
In short: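 Transcription factors were each fused at the N-terminus to a polyhistidine tag plus DsRed and expressed in E. coli BL21-CodonPlus before Ni–NTA purification. Binding to a double-stranded custom Agilent array was carried out with 200 nM protein at 25 °C for 1 h in PBS, 2% BSA, salmon testes DNA and 50 µM zinc acetate. The binding signal is per-feature fluorescence intensity, in arbitrary units, on an Axon 4000B scanner.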

| Sequence | binding signal |
| --- | --- |
| TATGATTTATTTTATATCAGTTCAAAATATAGGCATTATGCGGAGTCACCTAGTGCAG | 21500 fluorescence intensity (a.u.) |
| GGCAATGATTAATTATCTATTAGTAATGTGTTAACCAGGACGGAGTCACCTAGTGCAG | 42700 fluorescence intensity (a.u.) |
| CGCTGACGAGTTTCACCAGGATGAAACTCTTTCCTTCTCTCGGAGTCACCTAGTGCAG | 9810 fluorescence intensity (a.u.) |
| GTACTTGCGTTTGCATGATTGAGCAGCTGAAACCAACAGCCGGAGTCACCTAGTGCAG | 8080 fluorescence intensity (a.u.) |
| TTTGATCAAACTTTTAAAACTTTGATCATCAATAACATCTCGGAGTCACCTAGTGCAG | 3890 fluorescence intensity (a.u.) |
| AGATCAATCATATACCATTAGTGTATTTGTTTCTTTGTCACGGAGTCACCTAGTGCAG | 30600 fluorescence intensity (a.u.) |
| ATCAGATTGAGGAACACGTTACCAAGTTTGGTATTGCGGACGGAGTCACCTAGTGCAG | 17900 fluorescence intensity (a.u.) |
| CGGGTGATTTTCTTGGATTTGTCCCCTTTCTCGTGTTAGCCGGAGTCACCTAGTGCAG | 13800 fluorescence intensity (a.u.) |
| ACTCATAATTTAAGAAGTACTGACCAAAATTTGAAACTTTCGGAGTCACCTAGTGCAG | 3800 fluorescence intensity (a.u.) |
| ATCTCGAGGGGAGAAATGGATTGATTACCTGCTCGACGTGCGGAGTCACCTAGTGCAG | 5990 fluorescence intensity (a.u.) |
| TTGCAATATTTGTGAAATTAATTGAAGAAATTAAGAAGAACGGAGTCACCTAGTGCAG | 19600 fluorescence intensity (a.u.) |
| ATGGATTAGATTCGGGTCACTTTTAAGGGAGTCAAAGTGGCGGAGTCACCTAGTGCAG | 3450 fluorescence intensity (a.u.) |
| TTGATTTTACAGATTGTTGGGGATTGGGGTTGAACCAGCCCGGAGTCACCTAGTGCAG | 19400 fluorescence intensity (a.u.) |
| ATATGGATCGATTAATCAGCTGCCAATTAAGTCCGGTCAACGGAGTCACCTAGTGCAG | 17100 fluorescence intensity (a.u.) |
| ACACTCCGATCAATTAGATTAATCTTTTATAAAACTGGGACGGAGTCACCTAGTGCAG | 13600 fluorescence intensity (a.u.) |
| ACTACCATGCTTCATATGATTGAGCGCGCTGCAATTTGCACGGAGTCACCTAGTGCAG | 4900 fluorescence intensity (a.u.) |
| AGCTTTCTAACTGATTAAATCCAATGGTTGAGAATTTTGTCGGAGTCACCTAGTGCAG | 6460 fluorescence intensity (a.u.) |
| ATTTGGAGCTCAATCACTAGTACACGAATGATTTTCGATTCGGAGTCACCTAGTGCAG | 4130 fluorescence intensity (a.u.) |
| CATTGATATGCATTATATTTGTACTTGTGAGGGGTAGAAACGGAGTCACCTAGTGCAG | 6510 fluorescence intensity (a.u.) |
| ATACATTAATTTGATGCCCCAATAGAAGCACGCCAATCATCGGAGTCACCTAGTGCAG | 12000 fluorescence intensity (a.u.) |
| AATTTATTAAGCCTAATTAATCCGTCATTAGCAAATATTTCGGAGTCACCTAGTGCAG | 3950 fluorescence intensity (a.u.) |

| Sequence | binding signal |
| --- | --- |
| TATAATAATTAACCATGTGCTAACGAGTTTTCTCAATGTCCGGAGTCACCTAGTGCAG | 9060 fluorescence intensity (a.u.) |
| GGTTTGATAATTAAAGGAGTCGTTATACCCGGTTTTATCGCGGAGTCACCTAGTGCAG | 5980 fluorescence intensity (a.u.) |
| ATCTGATTAGGTTTTGGGTTTAAGTAGGAGAGGGTTGTGACGGAGTCACCTAGTGCAG | 20500 fluorescence intensity (a.u.) |
| TATAATTATTTAGGTGGCATGCAAGAAACGGGTGGACGTCCGGAGTCACCTAGTGCAG | 3280 fluorescence intensity (a.u.) |
| GGTAATTAATAATATACTCCTTCGTATCTAAATTAACTTGCGGAGTCACCTAGTGCAG | 33600 fluorescence intensity (a.u.) |
| CTCCTTAACATGACAATCTAATACAAAATATGATATATTTCGGAGTCACCTAGTGCAG | 6350 fluorescence intensity (a.u.) |
| ACAAAACAAATTACAGATTCCGCCTGCAAATTATGAGACACGGAGTCACCTAGTGCAG | 6510 fluorescence intensity (a.u.) |
| CTGATTCAAATTTGAATTTGAATTTGAATTCAAATATTTTCGGAGTCACCTAGTGCAG | 6240 fluorescence intensity (a.u.) |
| TAACCGTAATTAAATTCTGTACACAAATCACAAACCAACACGGAGTCACCTAGTGCAG | 20600 fluorescence intensity (a.u.) |
| AGACAAATTAAATGGTTCGACCCTGAGACCACCGGAAGGACGGAGTCACCTAGTGCAG | 8520 fluorescence intensity (a.u.) |
| TCAATTAACTCCCATGACACATGTCTCGTTATCTCCTAAACGGAGTCACCTAGTGCAG | 3740 fluorescence intensity (a.u.) |
| TTTGATGGGGAGATTTGCTCTGGCAACCATTCGGCTATGGCGGAGTCACCTAGTGCAG | 16800 fluorescence intensity (a.u.) |
| GCCATGTTAATTAGCATGCAGTTGTGTTGTGATGGATGACCGGAGTCACCTAGTGCAG | 21700 fluorescence intensity (a.u.) |
| CTTAATTACTCCTATATATATAAGGCAACCTATTATTGCCCGGAGTCACCTAGTGCAG | 25900 fluorescence intensity (a.u.) |
| ACGATGACTGGGAGAGGTGATGAGATCTGGTGAGGTGTCCCGGAGTCACCTAGTGCAG | 12100 fluorescence intensity (a.u.) |
| AAAATGATTTCAGATATGGTTTATATTAGGACTTGGGAGTCGGAGTCACCTAGTGCAG | 4420 fluorescence intensity (a.u.) |
| TCCATGCCAATTACACCTATTGCCAAAACACATGAAGCAACGGAGTCACCTAGTGCAG | 3660 fluorescence intensity (a.u.) |
| GTGTGATTGTGGGAAGGCTGGCCGCGTCGGGCATGCACGCCGGAGTCACCTAGTGCAG | 15200 fluorescence intensity (a.u.) |
| AAAATATGGAGATAATTGCTGCTAGTGGGTTGCAACTATTCGGAGTCACCTAGTGCAG | 4400 fluorescence intensity (a.u.) |
| AGTCCATGATTAGCCATAAGTGCTATAGTAACCCACATGTCGGAGTCACCTAGTGCAG | 20400 fluorescence intensity (a.u.) |
| TTTTAGATAGAAGAAACTTTTCTTCTTGAATTCTTGACTGCGGAGTCACCTAGTGCAG | 4720 fluorescence intensity (a.u.) |
